From article PMC4336329 (PLoS ONE, 2015)
The campaign covered roughly 310,000 compounds. About 2,200 (0.71%) showed an effect of 50% or more. The effect is printed as a negative number. This is one part of the list.

molecular target: human ether-à-go-go-related gene (hERG) potassium channel (human, UniProt Q12809); test: primary screen, population patch clamp on CHO cells stably expressing hERG
Sequence (Q12809 whole entry, looked up): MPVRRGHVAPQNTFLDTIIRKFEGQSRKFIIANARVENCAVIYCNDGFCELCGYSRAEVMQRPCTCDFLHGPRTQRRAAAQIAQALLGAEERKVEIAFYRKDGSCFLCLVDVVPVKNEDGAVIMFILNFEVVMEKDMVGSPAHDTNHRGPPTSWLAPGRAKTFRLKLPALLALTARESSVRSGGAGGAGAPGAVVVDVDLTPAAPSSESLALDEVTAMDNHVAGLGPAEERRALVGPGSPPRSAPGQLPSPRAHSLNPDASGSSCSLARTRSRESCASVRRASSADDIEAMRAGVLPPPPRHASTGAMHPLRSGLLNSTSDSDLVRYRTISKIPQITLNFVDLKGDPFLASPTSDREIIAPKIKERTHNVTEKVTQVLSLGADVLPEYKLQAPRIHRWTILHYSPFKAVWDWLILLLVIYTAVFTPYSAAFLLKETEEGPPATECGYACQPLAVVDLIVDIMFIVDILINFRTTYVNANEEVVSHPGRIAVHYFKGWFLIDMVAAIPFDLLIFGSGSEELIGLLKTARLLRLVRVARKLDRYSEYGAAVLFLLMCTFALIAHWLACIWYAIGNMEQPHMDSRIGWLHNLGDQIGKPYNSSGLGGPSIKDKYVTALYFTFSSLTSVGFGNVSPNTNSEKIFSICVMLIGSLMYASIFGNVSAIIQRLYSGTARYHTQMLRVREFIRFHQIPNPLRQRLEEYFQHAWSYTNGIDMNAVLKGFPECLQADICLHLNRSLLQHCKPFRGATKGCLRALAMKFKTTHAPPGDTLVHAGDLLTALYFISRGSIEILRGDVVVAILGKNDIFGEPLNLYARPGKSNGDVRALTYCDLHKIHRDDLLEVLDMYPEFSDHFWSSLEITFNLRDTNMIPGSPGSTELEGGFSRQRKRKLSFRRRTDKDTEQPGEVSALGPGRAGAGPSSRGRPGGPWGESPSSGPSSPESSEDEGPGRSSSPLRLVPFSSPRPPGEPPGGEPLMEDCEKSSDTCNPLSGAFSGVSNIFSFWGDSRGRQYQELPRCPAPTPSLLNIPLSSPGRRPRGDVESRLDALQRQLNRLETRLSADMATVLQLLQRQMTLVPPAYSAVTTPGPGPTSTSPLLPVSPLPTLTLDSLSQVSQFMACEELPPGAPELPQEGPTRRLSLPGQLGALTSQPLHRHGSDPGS

Row | SMILES | hERG current change (%, negative = inhibition) at 1uM
1 | COc1ccc(CCNS(=O)(=O)c2ccc3c(c2)NC(=O)CCS3)cc1OC | 14.8%
2 | O=S(=O)(c1ccc(Br)s1)N1CCN(CCc2ccccc2)CC1 | 16.8%
3 | CCCn1c(=S)[nH]c2cc(C(=O)N3CCN(c4ccccc4OC)CC3)ccc2c1=O | 7.21%
4 | CC(=O)Nc1ccc(NC(=O)Cn2ccc([N+](=O)[O-])n2)cc1 | 10.5%
5 | O=C(NCc1ccco1)C1CCCCC1 | 10.3%
6 | Cc1noc(C)c1COC(=O)CCc1nc2ccccc2s1 | 6.69%
7 | COc1ccccc1C(=O)n1nc(-c2ccco2)nc1SC | 5.24%
8 | O=C(CCN1CCOCC1)N1CCCC(Nc2cccc(F)c2)C1 (stereo not shown) | 4.08%
9 | O=C1COc2ccc(C(=O)COC(=O)/C=C/c3ccc(Br)o3)cc2N1 | 0.254%
10 | Cc1ccc(C2CC(=O)NC(SCC(N)=O)=C2C#N)s1 (stereo not shown) | 6.74%
11 | CN(CCOc1ccccc1)C(=O)C1CCC(=O)N(CCCN2CCCC2=O)C1 (stereo not shown) | 24.8%
12 | Cc1ccc(C(=O)N/C(=C\c2ccc3c(c2)OCO3)C(=O)Nc2ccc(C(=O)O)cc2)cc1 | 6.19%
13 | CC(C)Cc1ccc(S(=O)(=O)Nc2cccnc2)cc1 | 8.73%
14 | COC(=O)c1ccn(CSc2c(F)c(F)cc(F)c2F)n1 | 11.8%
15 | Nc1nc(Br)c2c(F)cccc2c1-c1ccc(Cl)cc1 | -14.6%
16 | Cc1cccc(C)c1-n1c(C)nn(Cc2ccc([N+](=O)[O-])cc2)c1=O | -0.849%
17 | CC(C)c1ccc(Nc2ccc(C(=O)O)cc2[N+](=O)[O-])cc1 | 18.8%
18 | COC(=O)c1ccc(COc2cc([N+](=O)[O-])cc3cccnc23)cc1 | 20.7%
19 | COC(=O)C1=C[C@@H](C(=O)OC)[C@@H]2C3=C(C(=O)[C@]2(CC(C)C)NC(=O)c2ccccc2)[C@H](C)n2c(=O)n(-c4ccccc4)c(=O)n2[C@@H]3C1 | 8.34%
20 | CN(C(=O)COC(=O)c1cc(Br)c(Br)s1)C1CCS(=O)(=O)C1 (stereo not shown) | 0.432%
21 | COc1cccc(C(=O)N2CCN(Cc3ccc(OC)cc3OC)CC2)c1.O=C(O)C(=O)O | 1.53%
22 | Cc1cccc(C(=O)N2CCc3cc(-c4nc(NC(=O)CN5CCCC5)sc4C)ccc32)c1 | 5.02%
23 | Cc1ccc(C)c(OCCC(=O)NNC(=O)Cn2nc(C)cc2C)c1 | 17.5%
24 | CCc1nnc(NC(=O)c2ccc(OC)cc2OC)s1 | 14.5%
25 | Cn1cc(S(=O)(=O)N2CCCC2)cc1C(=O)N1CCN(c2ccccc2)CC1 | -4.2%
26 | CCN1CCN(CCC(=O)Nc2ccc(Br)cc2)CC1.Cl | -4.85%
27 | N#Cc1ccccc1OCC(=O)NCC1(N2CCCCC2)CCCCC1 | 2.59%
28 | CCN(c1ccc(NC(=O)c2ccc(N3CCCC3=O)cc2)cc1)C(C)C | -4.5%

Row | SMILES | hERG current change (%, negative = inhibition) at 1uM
29 | COc1ccc(C(CC(=O)Nc2cc(C)ccn2)N2Cc3ccccc3C2=O)cc1 (stereo not shown) | 14.8%
30 | CC(C)(C)c1ccc(C(=O)N2CCCN(c3ccc([N+](=O)[O-])cn3)CC2)cc1 | -6.87%
31 | O=C(NCc1ccc(F)cc1)c1cccc2c1C(=O)N(Cc1cccnc1)C2 | -17%
32 | Cc1cc(C)nc(NS(=O)(=O)c2cccs2)c1 | 11.1%
33 | Cn1ncc(Cl)c1C(=O)N1CCOCC1 | 10.2%
34 | O=C(CNC(=O)c1cccs1)NCC(=O)OCC(=O)c1ccc([N+](=O)[O-])cc1 | 5.43%
35 | Cn1c(SCC(=O)Nc2ccc(N3CCOCC3)cc2)nnc1C(F)(F)F | 13.7%
36 | COc1ccc(Cc2nc3ccc(C(=O)NC(C)c4cn(C)nc4C)cc3o2)cc1 (stereo not shown) | 9.59%
37 | COc1ccc(C2CC(c3ccc(Cl)cc3Cl)n3nc(N)nc3N2)cc1 (stereo not shown) | 3.63%
38 | CCN1CC(CN(C)Cc2nc(Cc3ccccc3)no2)CC1=O (stereo not shown) | 3.51%
39 | CC(=O)c1c(N2CCN(C(=O)c3ccco3)CC2)nc(=S)n(-c2ccccc2)c1C | 4.55%
40 | Cn1cnc2nc3n(c2c1=O)CCC3 | 5.69%
41 | O=c1nc2c(-c3cccc(Br)c3)n[nH]n2c2ccccc12 | 6.61%
42 | CCOC(=O)c1c(C)n(C)c2ccc(OC)c(NC(=O)CN3CCCCC3)c12 | 2.9%
43 | O=C1c2ccccc2C(=O)N1c1cc([N+](=O)[O-])ccn1 | 17%
44 | Cc1ccc2c(c1)cc(CN(Cc1ccc3c(c1)OCO3)S(=O)(=O)c1ccccc1)c1nnnn12 | 16.7%
45 | CC1Cc2cc(/C=C3/SC(N4CCC(C(N)=O)CC4)=NC3=O)ccc2O1 (stereo not shown) | 9.18%
46 | Cc1ccc(CNC(=O)CCNS(=O)(=O)c2ccc(Br)s2)cc1 | 16.9%
47 | Cc1cccc(-n2ccnc2SCC(=O)c2c(N)n(C3CC3)c(=O)[nH]c2=O)c1C | 0.846%
48 | COC(=O)c1ccc(OC(=O)c2cccnc2)cc1 | 19.8%
49 | COc1ccc(C(=O)OCC(=O)NCc2ccccc2)c(OC)c1OC | 11.1%
50 | CC1CC(C)CN(C(=O)Nc2ccc(Br)cc2)C1 (stereo not shown) | 6.78%
51 | CCCCNC(=O)[C@@H]1CC=C[C@@H]2CCN(C3CC3)C(=O)[C@@H]21 | 13.2%
52 | Cc1c(C(=O)N2CC[C@@H](N3CCC(O)CC3)[C@H](O)C2)[nH]c2ccc(Cl)cc12 | 10.2%
53 | CN1CCN(S(=O)(=O)c2cccc(C(=O)N3CCc4ccccc43)c2)CC1 | -4.92%
54 | COc1cccc(C(=O)NC2CC3CCCC(C2)N3CC(=O)Nc2ccccc2C(F)(F)F)c1 (stereo not shown) | 14.8%
55 | Nc1ccc(C#Cc2c(-c3ccsc3)oc3ccc(N4CCOCC4)cc23)cc1 | 8.71%
